Assay results published in article PMC4242493.
The other results are listed elsewhere or left out. The list includes weakly bound sequences.

Molecular target: MaxL homodimer (UniProt P61244)
Assay: universal protein-binding microarray (PBM)
Settings: PBS-based mixture, 10 nM His-tagged protein dimer, 2% milk, 200 ng/uL BSA, 50 ng/uL salmon testes DNA, 0.02% TX-100; detection with Alexa 488 anti-His …; high values mean tight binding; most listed sequences are background and not binding sites; double strand, one strand shown

UniProt P61244, sequence (P61244 whole entry): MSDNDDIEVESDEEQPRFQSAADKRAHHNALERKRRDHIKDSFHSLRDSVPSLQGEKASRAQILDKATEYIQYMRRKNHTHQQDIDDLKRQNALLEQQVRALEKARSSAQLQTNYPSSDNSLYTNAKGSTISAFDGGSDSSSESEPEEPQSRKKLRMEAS

Sequence | binding signal (normalized occupancy)
GAAATCAC | 0.0765
ACCTGGGC | 0.0723
CCAGCACG | 0.0876
ATATCGAA | 0.0828
CCAAGGGC | 0.0653
GATTACGC | 0.0793
ACGTCGTA | 0.0858
CGCCATCC | 0.077
CTCTCTTA | 0.0759
ATCGGCGG | 0.0727
TGGCAAAA | 0.0788
ATTATGTA | 0.0828
ATTGAGCC | 0.0717
ACTTTCCG | 0.0721
AATGCCCC | 0.0836
GAACAGAA | 0.0707
CACACGGA | 0.0847
CGTAGTAA | 0.0792
CACCTACC | 0.0736
CGTATGAC | 0.0817
CACGGCGG | 0.0746
ACTCGCAT | 0.0808
CGCTACTA | 0.073
GAGTACAC | 0.0778
GGCCGCAA | 0.0676

Sequence | binding signal (normalized occupancy)
ACTCGGCC | 0.0694
GGTCGTAA | 0.0728
CGGACCAA | 0.0729
GCCGAGCC | 0.0652
CGTCGCGA | 0.07
CCGTGATC | 0.0778
CGAACGGC | 0.0661
AAGCGAAT | 0.0755
AGTCTACG | 0.0701
CTCACCAC | 0.0796
CGGGCCTC | 0.0653
GATTAGCC | 0.0764
GCTTCACA | 0.073
ATCCTTGA | 0.073
GAGCAATA | 0.0784
ATCTCGCG | 0.0769
AGACCCCA | 0.0814
GGAGACAC | 0.0756
GCCGACTA | 0.0724
AGATCTCC | 0.0732
CTGCAAAA | 0.0704
GCAGGCAA | 0.0699
AACCGCAA | 0.07
AAGCAGGT | 0.0774
GCGGCGCA | 0.0702

Sequence | binding signal (normalized occupancy)
ACAGGAGT | 0.0719
AAGCCTTA | 0.0724
ACACCAGC | 0.0755
ACTAGAGC | 0.0752
CTGCGAGC | 0.0694
TATATCAA | 0.0837
ATCGGTGA | 0.0706
ATTCAATC | 0.0766
ACGGCTGG | 0.0646
TTAAAGAA | 0.0733
GGGGTCAC | 0.0825
CATAACAC | 0.0892
TCGAGACA | 0.0762
CCTCGTGA | 0.125
ACCAGTCT | 0.0692
GAGGGGTA | 0.0806
ACGTAGGC | 0.0765
CGTTACAA | 0.0789
AATCTGAG | 0.0765
AGAGCAAT | 0.0729
GGGTAAGA | 0.0831
GCGGATCA | 0.0718
ATAGTAAA | 0.077
AACCCCTT | 0.0746
ATTCCGAC | 0.0732

Sequence | binding signal (normalized occupancy)
CCGATGGC | 0.0704
ACTTCCCG | 0.0729
CCCTAGTC | 0.0735
CACTCTAG | 0.0722
GATATGGC | 0.0846
AGGACTAA | 0.0762
CCTCCCCG | 0.0742
ATTCTATG | 0.0827
ACTCTAGA | 0.0718
GACGCGAA | 0.0735
ACCTCATC | 0.0736
CGCTACCC | 0.0767
ATATCTGG | 0.0756
ATCTAAAG | 0.072
AGATGCCG | 0.0739
AGCCTAAC | 0.0739
ATAAAGGA | 0.0773
GCTAGTCA | 0.0705
CCCACAAG | 0.0792
CTACTTAC | 0.076
ACGGTTTA | 0.0718
ACCAATTG | 0.0745
AAGCACAG | 0.0699
ACGGGCGG | 0.0712
TACTGGGA | 0.072

Sequence | binding signal (normalized occupancy)
AAAACGGT | 0.0756
GGTATCCA | 0.0807
CAAGAACG | 0.0695
GCAAACGA | 0.0725
TATTCACA | 0.0875
CATTAAGG | 0.0729
ATCCATGG | 0.0797
CTGTAATA | 0.0777
AGGCAAAG | 0.0688
CCTGGAAG | 0.076
GGAGTATA | 0.0799
AATATCGG | 0.0748
AATAACAT | 0.0855
CGCGCTGA | 0.0747
CTTTAATC | 0.0742
AAACAATA | 0.0731
ACCACCGC | 0.0794
TGAGACCA | 0.0731
AACTCCCC | 0.0752
ATAAACGG | 0.0764
GTCTCGGA | 0.0672
ATGATCTC | 0.079
AAATTAGC | 0.0696
GACGTGGA | 0.087
AATGCGCA | 0.0804

Sequence | binding signal (normalized occupancy)
AAGGGACT | 0.0718
CAAAGCGC | 0.0693
TATGGCAA | 0.0807
TGTCTAAA | 0.0764
CAACTATA | 0.0783
CCCTTTTA | 0.0719
ATGGTCCA | 0.0776
CGCCACTA | 0.0684
GCGTACTA | 0.0804
GTGGAGGA | 0.08
ACGACAGA | 0.0748
ACTTGCGG | 0.0726
CTCGTCCC | 0.0705
CGATTCCA | 0.0708
ATCCACTC | 0.0804
AACCTCGT | 0.0822
CATCATTA | 0.0781
GGTTTCTA | 0.0759
AGGAATCA | 0.077
AACGTTAG | 0.0732
AACCGTTC | 0.0699
CGGATATA | 0.0807
CTTTGATC | 0.0743
CTGGCTAA | 0.0714
TAAGATCA | 0.0822

Sequence | binding signal (normalized occupancy)
ATACCCAC | 0.0843
AGTACTGG | 0.0727
ACCTGAGA | 0.0771
GTAGAACA | 0.0767
AGTAGAAA | 0.0748
CTTGAAAA | 0.0707
GTCCAAAC | 0.0666
CCCCGCCG | 0.0728
ACACAAGA | 0.0795
GAAGACGC | 0.0715
TACCTGAA | 0.0719
ACAAACCG | 0.0718
AGACCCAA | 0.0696
CGTGCTCA | 0.0935
CTGATCCC | 0.0769
CTCTTTTA | 0.0744
ATGGGTTG | 0.0793
TACGGGGA | 0.0726
CCTCTCCA | 0.0786
CAAATTTA | 0.0699
CGTGCCTA | 0.0868
AGCCCGAC | 0.0683
AGGTCCAG | 0.0699
ACTTAAGA | 0.0765
GAGGAACC | 0.0734

Sequence | binding signal (normalized occupancy)
AGACATCG | 0.0727
GGGATACA | 0.0809
AAGACCAA | 0.0715
CTTGTGAA | 0.0741
AAAAGTAG | 0.0741
GTTGTCTA | 0.0802
CCTTGATC | 0.0765
CGCAAGCC | 0.0696
AAGTCGGG | 0.0761
AATTTAGC | 0.0736
AAATTCTC | 0.0738
AAAGGCTC | 0.0692
GAGCGTCC | 0.0671
AGACTGTC | 0.075
GCGAGTCC | 0.0694
CAAGTATC | 0.0768
GCTGGGTA | 0.073
CCCTCCTA | 0.0809
AGGGAGTC | 0.0743
GATGCGAC | 0.0759
AGTAGAGG | 0.0739
ATCCGTTG | 0.0722
CACATAAA | 0.0786
ATGCTGTC | 0.0841
ATATGCTG | 0.0875

Sequence | binding signal (normalized occupancy)
CGTACGAG | 0.0761
AAACTGCT | 0.0693
GTCTACCA | 0.074
CTTTCGAA | 0.0667
GAAAATTC | 0.0728
AGAGTAGG | 0.0708
AATATAAT | 0.0785
CGTTGTAC | 0.0819
CCAACAAA | 0.0724
AGAAAGTG | 0.0763
AGCTGTAG | 0.075
CACCAGAA | 0.0736
CGCGAACG | 0.0677
GAAATTGA | 0.0711
ATGGCACC | 0.0825
CATTCGGG | 0.0777
ACCACTAA | 0.076
ACATCTCG | 0.0786
CGGTATTA | 0.0728
